Laboratory results as given in the GPR68 mutational scans of Howard et al. (2025).
Scores whose standard error is large were omitted. The source holds two more conditions with little spread; they are left out. In variant names, del marks residues removed and ins residues inserted between the two positions. For some assays here: The concentration of ogerin is not given here.

B1: GPR68, Q15743 (parent)
chain: MGNITADNSSMSCTIDHTIHQTLAPVVYVTVLVVGFPANCLSLYFGYLQIKARNELGVYLCNLTVADLFYICSLPFWLQYVLQHDNWSHGDLSCQVCGILLYENIYISVGFLCCISVDRYLAVAHPFRFHQFRTLKAAVGVSVVIWAKELLTSIYFLMHEEVIEDENQHRVCFEHYPIQAWQRAINYYRFLVGFLFPICLLLASYQGILRAVRRSHGTQKSRKDQIQRLVLSTVVIFLACFLPYHVLLLVRSVWEASCDFAKGVFNAYHFSLLLTSFNCVADPVLYCFVSETTHRDLARLRGACLAFLTCSRTGRAREAYPLGAPEASGKSGAQGEEPELLTKLHPAFQTPNSPGSGGFPTGRLA

What was measured:
[1] = variants of: B1; assay: cAMP reporter score (Enrich2 score, wild type = 0); higher = more signal; HEK293T, FACS bins
[2] = variants of: B1; assay: surface expression score (Enrich2 score, wild type = 0); higher = more signal; HEK293T, FACS bins

MGNITADNSSMSCTIDHTIHQTLAPVVYVTVLVVGFPANCLSLYFGYLQIKARNELGVYLCNLTVADLFYICSLPFWLQYVLQHDNWSHGDLSCQVCGILLYENIYISVGFLCCISVDRYLAVAHPFRFHQFRTLKAAVGVSVVIWAKELLTSIYFLMHEEVIEDENQHRVCFEHYPIQAWQRAINYYRFLVGFLFPICLLLASYQGILRAVRRSHGTQKSRKDQIQRLVLSTVVIFLACFLPYHVLLLVRSVWEASCDFAKGVFNAYHFSLLLTSFNCVADPVLYCFVSETTHRDLARLRGACLAFLTCSRTGRAREAYPLGAPEASGKSGAQGEEPELLTKLHPAFQTPNSPGSGGSPTGRLA [F359S]
cAMP reporter score ([1]; pH 5.5): 1.05
cAMP reporter score ([1]; pH 6): 1.35
cAMP reporter score ([1]; pH 6, modulator: ogerin): 1.27
cAMP reporter score ([1]; pH 6.5, modulator: ogerin): 1.95
surface expression score [2]: 1.05

MGNITADNSSMSCTIDHTIHQTLAPVVYVTVLVVGFPANCLSLYFGYLQIKARNELGVYLCNLTVADLFYICSLPFWLQYVLQHDNWSHGDLSCQVCGILLYENIYISVGFLCCISVDRYLAVAHPFRFHQFRTLKAAVGVSVVIWAKELLTSIYFLMHEEVIEDENQHRVCFEHYPIQAWQRAINYYRFLVGFLFPICLLLASYQGILRAVRRSHGTQKSRKDQIQRLVLSTVVIFLACFLPYHVLLLVRSVWEASCDFAKGVFNAYHFSLLLTSFNCVADPVLYCFVSETTHRDLARLRGACLAFLTCSRTGRAREAYPLGAPEASGKSGAQGEEPELLTKLHPAFQTPNSPGSGGTPTGRLA [F359T]
cAMP reporter score ([1]; pH 5.5): 0.497
cAMP reporter score ([1]; pH 6, modulator: ogerin): 0.723
cAMP reporter score ([1]; pH 6.5, modulator: ogerin): 0.318
surface expression score [2]: 0.448

MGNITADNSSMSCTIDHTIHQTLAPVVYVTVLVVGFPANCLSLYFGYLQIKARNELGVYLCNLTVADLFYICSLPFWLQYVLQHDNWSHGDLSCQVCGILLYENIYISVGFLCCISVDRYLAVAHPFRFHQFRTLKAAVGVSVVIWAKELLTSIYFLMHEEVIEDENQHRVCFEHYPIQAWQRAINYYRFLVGFLFPICLLLASYQGILRAVRRSHGTQKSRKDQIQRLVLSTVVIFLACFLPYHVLLLVRSVWEASCDFAKGVFNAYHFSLLLTSFNCVADPVLYCFVSETTHRDLARLRGACLAFLTCSRTGRAREAYPLGAPEASGKSGAQGEEPELLTKLHPAFQTPNSPGSGGVPTGRLA [F359V]
cAMP reporter score ([1]; pH 5.5): 0.826
cAMP reporter score ([1]; pH 6, modulator: ogerin): 2.05
surface expression score [2]: 1.52

MGNITADNSSMSCTIDHTIHQTLAPVVYVTVLVVGFPANCLSLYFGYLQIKARNELGVYLCNLTVADLFYICSLPFWLQYVLQHDNWSHGDLSCQVCGILLYENIYISVGFLCCISVDRYLAVAHPFRFHQFRTLKAAVGVSVVIWAKELLTSIYFLMHEEVIEDENQHRVCFEHYPIQAWQRAINYYRFLVGFLFPICLLLASYQGILRAVRRSHGTQKSRKDQIQRLVLSTVVIFLACFLPYHVLLLVRSVWEASCDFAKGVFNAYHFSLLLTSFNCVADPVLYCFVSETTHRDLARLRGACLAFLTCSRTGRAREAYPLGAPEASGKSGAQGEEPELLTKLHPAFQTPNSPGSGGWPTGRLA [F359W]
cAMP reporter score ([1]; pH 5.5): 0.311
cAMP reporter score ([1]; pH 6): -0.3
cAMP reporter score ([1]; pH 6, modulator: ogerin): 0.118
cAMP reporter score ([1]; pH 6.5, modulator: ogerin): 0.028
surface expression score [2]: -0.192
